Assay results as given in paper PMC4336329 (PLoS ONE, 2015).
Screen size: about 310,000 compounds; about 2,200 (0.71%) showed an effect of 50% or more. Effects have a minus sign here. The list shows a part of the results.

Target: human ether-à-go-go-related gene (hERG) potassium channel (human, UniProt Q12809)
Test: primary screen, population patch clamp on CHO cells stably expressing hERG

Sequence of human ether-à-go-go-related gene (hERG) potassium channel (Q12809 whole entry, looked up): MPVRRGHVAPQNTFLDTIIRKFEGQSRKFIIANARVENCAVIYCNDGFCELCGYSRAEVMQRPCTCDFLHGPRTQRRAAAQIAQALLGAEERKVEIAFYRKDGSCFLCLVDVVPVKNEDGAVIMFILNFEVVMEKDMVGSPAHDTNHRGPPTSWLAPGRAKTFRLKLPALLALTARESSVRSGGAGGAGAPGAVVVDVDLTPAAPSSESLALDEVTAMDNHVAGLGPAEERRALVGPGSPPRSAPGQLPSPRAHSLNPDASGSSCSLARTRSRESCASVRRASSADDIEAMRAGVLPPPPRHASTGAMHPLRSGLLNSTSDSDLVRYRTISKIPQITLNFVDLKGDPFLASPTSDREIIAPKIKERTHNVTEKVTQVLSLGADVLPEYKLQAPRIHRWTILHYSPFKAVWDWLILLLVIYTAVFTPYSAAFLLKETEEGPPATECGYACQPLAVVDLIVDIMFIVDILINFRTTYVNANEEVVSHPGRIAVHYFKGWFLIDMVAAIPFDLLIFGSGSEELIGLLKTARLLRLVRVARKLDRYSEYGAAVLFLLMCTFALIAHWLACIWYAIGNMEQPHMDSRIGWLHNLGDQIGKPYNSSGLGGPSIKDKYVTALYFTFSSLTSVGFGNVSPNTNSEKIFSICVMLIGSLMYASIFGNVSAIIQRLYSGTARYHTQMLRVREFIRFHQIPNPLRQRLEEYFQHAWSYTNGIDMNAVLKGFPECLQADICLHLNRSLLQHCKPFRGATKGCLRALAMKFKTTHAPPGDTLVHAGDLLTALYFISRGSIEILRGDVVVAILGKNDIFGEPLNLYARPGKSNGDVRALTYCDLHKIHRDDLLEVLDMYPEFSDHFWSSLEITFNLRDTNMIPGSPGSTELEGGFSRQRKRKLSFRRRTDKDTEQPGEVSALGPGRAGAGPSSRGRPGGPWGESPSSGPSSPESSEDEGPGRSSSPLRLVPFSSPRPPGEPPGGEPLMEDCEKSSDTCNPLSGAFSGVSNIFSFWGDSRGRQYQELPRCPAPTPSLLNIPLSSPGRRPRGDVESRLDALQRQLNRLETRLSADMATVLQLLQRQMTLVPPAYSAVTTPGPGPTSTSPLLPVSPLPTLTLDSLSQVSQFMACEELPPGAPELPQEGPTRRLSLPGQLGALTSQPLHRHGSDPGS

Row | Compound | hERG current change (%, negative = inhibition) at 1uM
1 | COc1ccc(-c2nnc(SCC(=O)NC3CCCCC3)o2)cc1 | 3.98%
2 | Cc1cc(Nc2ccccc2)n(C(=O)c2ccccc2)n1 | 4.15%
3 | COC(=O)/C=C1/SC(=NC(=O)c2ccc(Cl)cc2)NC1=O | 16.6%
4 | O=C(NCCCn1ccnc1)c1ccc(OCC(F)(F)F)cc1 | 2.75%
5 | CCOC(=O)c1sc(NC(=O)CN2CCCC2)c(C(=O)OCC)c1C | -7.2%
6 | CC(=O)N1CCN(C(=O)c2ccccc2NS(=O)(=O)c2ccc(F)cc2)CC1 | 7.49%
7 | COC(=O)c1cccc(N/C=C(\[N+](=O)[O-])S(=O)(=O)c2ccccc2)c1 | 13.1%
8 | Cc1cc(C(=O)N/N=C/c2c(C)[nH]c3ccccc23)n[nH]1 | 13.7%
9 | CSc1ccc(-c2nnn(CC(=O)NCc3ccccc3)n2)cc1 | 13.4%
10 | COC(=O)C1CCN(S(=O)(=O)Cc2ccccc2)CC1 | 8.45%
11 | O=C(c1cc(-c2ccc(Br)cc2)n[nH]1)N1CCN(C(=O)c2ccccc2Br)CC1 | 2.43%
12 | COC(=O)c1c(C)cc(O)c(C=O)c1O | 7.57%
13 | CC1CCN(C(=S)NCCc2ccccc2)CC1 | -8.86%
14 | COC(=O)C1=C(c2cccc(C#N)c2)C[C@@H]2CC[C@H]1N2C(=O)N1CCC(C)CC1 | -3.09%
15 | C=CCn1c(N)c(C(=O)OCC)sc1=S | 18%
16 | Nc1ccc(OCCc2ccccc2)cc1 | 11.5%
17 | O=C(CCN1C(=O)/C(=C/c2ccccc2F)SC1=S)NC1C=CS(=O)(=O)C1 (stereo not shown) | 9.3%
18 | O=C(O)c1ccc(Cl)c(S(=O)(=O)Nc2ccc(S(=O)(=O)Nc3cccc(Cl)c3)cc2)c1 | 11.6%
19 | COC(=O)CCC/C=C1/SCC(NC(=O)c2ccccc2)/C1=N/O (stereo not shown) | 11.5%
20 | CCCNC(=O)c1cc(-c2ccc(OC)cc2)on1 | 3.94%

Row | Compound | hERG current change (%, negative = inhibition) at 1uM
21 | O=C(Nc1cnn(Cc2ccccc2)c1)NC12CC3CC(CC(C3)C1)C2 | 15.3%
22 | Cc1cnc(NC(=O)CSc2nnc(N)s2)s1 | 19.4%
23 | COC(=O)c1c(NC(=S)Nc2ccc(F)cc2[N+](=O)[O-])sc2c1CCCCC2 | 14.7%
24 | COCC(=O)Nc1ccc(OC)c(Cl)c1 | 1.93%
25 | Oc1ccccc1N1CCN(Cc2ncc(-c3ccccc3)o2)CC1 | 7%
26 | CC(C)n1nccc1NS(=O)(=O)c1ccccc1 | 8.36%
27 | O=C1C=C(c2ccc(OC(F)(F)F)cc2)C[C@@H](c2ccc(F)cc2)C1 | 11.2%
28 | CC(C)c1nc2sc3c(=O)[nH]c(=S)[nH]c3c2c2c1CCCC2 | 13.2%
29 | Cl.OCCN1CCN(CC(O)COc2ccc(C34CC5CC(CC(C5)C3)C4)cc2)CC1 (stereo not shown) | 8.74%
30 | O=c1c(Cc2ccc(F)cc2)c(O)ccn1Cc1cccc(Cl)c1 | 8.42%
31 | COc1cccc(NC(=O)c2cc3ccccc3o/c2=N\O)c1 | 9.16%
32 | O=C(CCc1nc(-c2ccc(Cl)cc2)no1)NC1CCCCC1 | 13.1%
33 | CCN(CCCNC(=O)COc1cc(=O)n(C)c2ccccc12)c1ccccc1 | -12.6%
34 | CC(C)CNC(=S)N(CCCO)Cc1cc2cc3c(cc2[nH]c1=O)OCCO3 | 16.1%
35 | COc1ccc(Oc2coc3cc(OCC(=O)N4CCCCC4)ccc3c2=O)cc1 | 1.94%
36 | COP(=O)(Cc1ccc(C#N)o1)OC | 9.22%
37 | COc1cccc(NC(=O)NC2(C(=O)N3CCN(C)CC3)CCCCC2)c1 | 11.3%
38 | O=C(CN1CCOCC1)Nc1ccc(Cl)cc1 | 6.88%
39 | CCOC(=O)CCCCC(=O)c1[nH]c(=O)[nH]c1CSc1nc2ccccc2[nH]1 | 17.5%
40 | CC(=O)Nc1sc2c(c1CN1CCN(c3ccc(F)cc3)CC1)CCCC2 | -2.89%

Row | Compound | hERG current change (%, negative = inhibition) at 1uM
41 | Cc1ccc(NC(=O)CC2=NC(=O)C(CC(=O)Nc3ccccc3C)S2)cc1 (stereo not shown) | 14.9%
42 | COC(=O)CCN(C(=O)c1ccc(OC(C)=O)cc1)c1ccccn1 | 11%
43 | O=C(O)c1cc(Br)ccc1NS(=O)(=O)c1cccc2nsnc12 | 17.4%
44 | Nc1cc(N)nc(SCc2ccc(Cl)cc2)n1 | 10.8%
45 | O=c1oc2ccccc2c(O)c1CN1CCCCC1 | 11.7%
46 | O=[N+]([O-])c1ccc(C2CCCC/C2=N/OCc2ccc(F)cc2)c([N+](=O)[O-])c1 (stereo not shown) | 0.739%
47 | CC(=O)N1N=C(c2cccc(NS(C)(=O)=O)c2)CC1c1ccc2c(c1)OCO2 (stereo not shown) | -0.789%
48 | Cc1ccccc1C(=O)N1CCC(C(=O)N(CC(C)C)c2c(N)n(Cc3ccccc3)c(=O)[nH]c2=O)CC1 | 20.2%
49 | CCOC(=O)c1ccc(NC(=S)N2CCN(c3ccccn3)CC2)cc1 | 12.4%
50 | Cc1ccc(CN2CCN(/N=C/c3ccc(C(=O)O)cc3)CC2)c(C)c1 | 7.71%
51 | CC(=O)c1cccc(CN2CCC(C(=O)Nc3cccc(-c4ccn[nH]4)c3)CC2)c1 | 7.16%
52 | CC1CCN(C(=O)COC(=O)c2cc3ccccc3cc2O)CC1 | 10.5%
53 | NS(=O)(=O)c1ccc(NC(=O)COC(=O)CCC2CCCC2)cc1 | 14%
54 | CSc1nc2ccc(NC(=O)c3nn(C(C)C)c(=O)c4ccccc34)cc2s1 | 8.78%
55 | Cc1n(-c2ccccc2)c2ccc(Cl)cc2[n+]1CCO.[I-] | 14.4%
56 | C=CCOc1cccc(/C=N/NC(=O)C(OC)c2ccccc2)c1 (stereo not shown) | 9.35%
57 | CCCCNC(=O)O[C@@H]1C[C@@H]2CCN3C(=O)CCC[C@H]([C@H]1CC)[C@H]23 | -4.75%
58 | O=C(Nc1ccncc1)c1cc(S(=O)(=O)N2CCCCC2)ccc1Cl | -6.73%
